Test results taken from the supplement of paper PMC10338343.
± gives the standard deviation. This is a selection; strong and weak results do not stand in their true shares.

Test system: MIWI (PIWIL1) piRISC loaded with L1MC piRNA (30 nt)
Test: pre-steady-state target cleavage rate (min^-1); MIWI and MILI are mouse PIWI proteins and EfPiwi is from a freshwater sponge; tags in brackets are library labels; higher = faster piRNA-guided slicing of the target
Conditions: guide: L1MC piRNA 5'p-UAACUAAAUACUAUGCAAGCUGUAGGUCCU
Method in brief: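 Cleave-'n-Seq: 1 nM active affinity-purified piRISC with one synthetic guide and 0.1 nM transcribed, DNA-blocked target RNA library were mixed, with or without 500 nM GTSF1 partner protein, in HEPES–potassium acetate buffer at 33 °C for 0–8 or 0–960 min. Uncleaved targets were sequenced and normalised to depth and to weakly complementary targets, three trials were pooled, and k3 was capped at 0.0001 min^-1. The pre-steady-state cleavage rate was fitted […].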

[1] = auxiliary factor: 500 nM mouse GTSF1
[2] = auxiliary factor: none (no GTSF1)

Row | Sequence | pre-steady-state target cleavage rate [1] | pre-steady-state target cleavage rate [2]
1 | UCCUGCUACACGAUGCAUAGUAUUUAGUUA | 0.674 ± 0.037 | 0.00371 ± 0.0021
2 | AGGACCAACAGCUUGCAUAGAAUUUAGUUA | 0.519 ± 0.03 | 0.0373 ± 0.0099
3 | UCGACCUACUGCUUGCUUAGUAUUUAGUUA | 1.52 ± 0.061 | 0.031 ± 0.0067
4 | UCCUGGUACAGCUUGCAUAGUAUAUAGAUA | 0.17 ± 0.044 | 0.00548 ± 0.0035
5 | UCCUGGAACAGCUUGCAAAGUAAUUAGUUA | 0.545 ± 0.038 | 0.0139 ± 0.0055
6 | AGGACCUACAGCUUGCAUUGUAUUUAGAAA | 0.277 ± 0.045 | 0.00518 ± 0.0027
7 | UCCUGGUACACCUUGCUUAGUAUUUAGUUA | 0.295 ± 0.056 | 0.0101 ± 0.0025
8 | UCCUGGAUGACCUUGCAUUGUAUUUAGUUA | 0.0202 ± 0.0061 | 0.00292 ± 0.0024
9 | AGGACCUACAGCUUGCAAAGAAUUUAGUUA | 0.37 ± 0.03 | 0.0117 ± 0.0035
10 | UCCUGGAUGUGCUUGCAUAGUAUUUUGUUA | 0.213 ± 0.022 | 0.0261 ± 0.0063
11 | UCCUGGAACAGCUUGCAUAGUAUUUUGUUA | 0.597 ± 0.048 | 0.0384 ± 0.0073
12 | UCCUGGAUGAGCUUGCAUAGUAUUUUGUUA | 0.572 ± 0.047 | 0.0326 ± 0.0068
13 | UCCUGGAACAGCUUGCAUAGUAUUUUGAUA | 0.232 ± 0.029 | 0.0117 ± 0.0035
14 | UCCUGGAUGUGCUUGCAUAGUAUUUACAAA | 0.0422 ± 0.012 | 0.0047 ± 0.0024
15 | UCCUGGAUCAGCUUGCGUAGUAUUUAGUUA | 1.2 ± 0.064 | 0.022 ± 0.0054
16 | UCCUGGAUCAGCUGCAUAGUAUUUAGUUA | 0.277 ± 0.031 | 0.00498 ± 0.0023
17 | UCGACCUUCAGCUUGCAUAGUAAUUAGUUA | 0.939 ± 0.044 | 0.0332 ± 0.0081
18 | UCCUGGAUCAGCUUGCUUAGUAUUUAGAUA | 0.351 ± 0.036 | 0.00934 ± 0.0028
19 | AGAACCUACAGCUUGCAUAGUAUUUAGUUA | 1.43 ± 0.047 | 0.0851 ± 0.013
20 | UGGAGGUACAGCUUGCAUAGUAUUUAGAAA | 0.369 ± 0.052 | 0.0114 ± 0.0031

Row | Sequence | pre-steady-state target cleavage rate [1] | pre-steady-state target cleavage rate [2]
21 | AGGACCUAGAGCUUGCAUAGUAUUUAGUUA | 1.26 ± 0.07 | 0.0629 ± 0.011
22 | UGGACCUAGAGCAUGCAUAGUAUUUAGUUA | 0.952 ± 0.059 | 0.0242 ± 0.0069
23 | UCCUGCUACACCUUGCAUAGUAUUUAGUAA | 0.418 ± 0.055 | 0.0158 ± 0.0032
24 | UGGACCUACUGCUUGCUUAGUAUUUAGUUA | 1.4 ± 0.081 | 0.0402 ± 0.0083
25 | UCCUGGUACAGCUUGCAUAGAAUUUACUUA | 0.0682 ± 0.02 | 0.00381 ± 0.0032
26 | UCCUGGUACAGCUUGCAAGUAUUUAGUUA | 0.181 ± 0.021 | 0.0108 ± 0.0039
27 | UCCUCCUACUGCUUGCAUAGUAUAUAGUUA | 0.472 ± 0.026 | 0.0228 ± 0.0045
28 | UCCUGGAUGAGCUUGCAUAGAUUUUAGUUA | 0.00823 ± 0.0035 | 0.00284 ± 0.0027
29 | UCCUGGUACAGCUUGGUUAGUAUUUAGUUA | 0.606 ± 0.042 | 0.0136 ± 0.003
30 | AGGACGUACAGCUUGCAUAGAAUUUAGUUA | 0.279 ± 0.014 | 0.0225 ± 0.007
31 | ACGACCUACACCUUGCAUAGUAUUUAGUUA | 1.16 ± 0.042 | 0.0749 ± 0.014
32 | AGGACCUACACCUUGCAUAGUAUUUAGAAA | 0.714 ± 0.098 | 0.0173 ± 0.0056
33 | UCCUGGAUGAGCUAGCAUAGUAUUUUGUUA | 0.373 ± 0.047 | 0.00615 ± 0.0029
34 | UCCACCUACAGCUUGCAAAGAAUUUAGUUA | 0.242 ± 0.029 | 0.00734 ± 0.0028
35 | UCCUGGAUGUCCUUGCAUAGUAUUUCGUUA | 0.0663 ± 0.014 | 0.00618 ± 0.0018
36 | UCGACCUACAGCUUGCUUUGUAUUUAGUUA | 0.225 ± 0.019 | 0.00565 ± 0.0016
37 | AGGACCUACAGCUUGCAUAGUUUAUAGUUA | 0.16 ± 0.022 | 0.0173 ± 0.0056
38 | AGUACCUACAGCUUGCAUAGUAUUUAGUUA | 1.23 ± 0.064 | 0.0796 ± 0.013
39 | UCCUGGAACAGGUUGCAUAGUAUUUAGAUA | 0.344 ± 0.052 | 0.0065 ± 0.0021
40 | UCGACCUACAGAUUGCAUAGUAUUUAGUUA | 1.13 ± 0.059 | 0.0469 ± 0.0091

Row | Sequence | pre-steady-state target cleavage rate [1] | pre-steady-state target cleavage rate [2]
41 | UCCUGGAACAGCUUGCAUAGUAAUUAGUUA | 0.798 ± 0.041 | 0.0276 ± 0.006
42 | AGGACCUACAGCUAGCAUAGUAUUUAGAAA | 0.571 ± 0.066 | 0.00411 ± 0.0025
43 | UGGUCCUACAGCUUGCAUAGUAUUUAGAAA | 0.396 ± 0.041 | 0.0162 ± 0.0043
44 | UGCACCUACAGCUAGCAUAGUAUUUAGUUA | 1.22 ± 0.097 | 0.0194 ± 0.0043
45 | UCCUGGAUGUCCUUGCAUAGUGUUUAGUUA | 0.069 ± 0.012 | 0.0107 ± 0.0026
46 | UCCACCUUGAGCUUGCAUAGUAUUUAGUAA | 0.687 ± 0.092 | 0.0162 ± 0.0035
47 | UCCUCCUACAGCUUGCAUUGUAUAUAGUUA | 0.395 ± 0.023 | 0.01 ± 0.0029
48 | UCCUGGUACUGCUAGCAUAGUAUUUAGUUA | 0.462 ± 0.044 | 0.00832 ± 0.0021
49 | UGGACGUACACCUUGCAUAGUAUUUAGUUA | 0.993 ± 0.036 | 0.0623 ± 0.0094
50 | UCCUGGUACAGCUUGCAUAGUAUUAUCUUA | 0.163 ± 0.037 | 0.00345 ± 0.0034
51 | UCCUGGAUGUGCUUGCAAAGUAAUUAGUUA | 0.0103 ± 0.0034 | 0.00355 ± 0.0018
52 | UGGACCAACAGCUUGCAUAGUAUUUUCAAA | 0.279 ± 0.041 | 0.00581 ± 0.0024
53 | UCCACCUACACCUUGCAUAGUAUUUACUUA | 0.302 ± 0.054 | 0.0244 ± 0.0043
54 | UCCUGGAUGAGCAUGCAUAGUAUUUACUUA | 0.239 ± 0.033 | 0.00683 ± 0.0021
55 | AGGAGCUACAGCUUGCAUAGUAUUUACAAA | 0.34 ± 0.054 | 0.00933 ± 0.0028
56 | UCGACCUACUGCUAGCAUAGUAUUUAGUUA | 1.25 ± 0.048 | 0.025 ± 0.0048
57 | UCCACCAACAGCUUGGAUAGUAUUUAGUUA | 1.36 ± 0.056 | 0.0553 ± 0.01
58 | AGGACCUACAGCUUGCAUACUAUUAAGUUA | 0.222 ± 0.028 | 0.0148 ± 0.0028
59 | UCCUGGAUGACGUUGCAUAGUAUUUAGUUA | 0.0518 ± 0.0098 | 0.00346 ± 0.003
60 | UCCUGGAUGUGCAUGCAAAGUAUUUAGUUA | 0.0129 ± 0.0031 | 0.00516 ± 0.0023
